{"source": "patent US20040157314A1", "about": "“Inhibitors of Staphylococcus aureus primary sigma factor and uses thereof” (priority 2003, published 2004)", "molecules": {"B1": {"name": "G1ORF67: 198 amino acids protein from S. aureus bacteriophage G1 (SEQ ID NO: 7), anti-primary sigma factor (protein)", "chain": "MKLKILDKDNATLNVFHRNKEHKTIDNVPTANLVDWYPLSNAYEYKLSRNGEYLELKRLRSTLPSSYGLDDNNQDIIRDNNHRCKIGYWYNPAVRKDNLKIIEKAKQYGLPIITEEYDANTVEQGFRDIGVIFQSLKTIVVTRYLEGKTEEELRIFNMKSEESQLNEALKESDFSVDLTYSDLGQIYNMLLLMKKISK", "modifications": "Bacteriophage G1"}}, "key": {"[1]": {"target": "STAAU_R12 with E. coli core polymerase and λPR promoter DNA probe (Staphylococcus aureus, UniProt P0A0J0)", "sequence (P0A0J0 whole entry)": "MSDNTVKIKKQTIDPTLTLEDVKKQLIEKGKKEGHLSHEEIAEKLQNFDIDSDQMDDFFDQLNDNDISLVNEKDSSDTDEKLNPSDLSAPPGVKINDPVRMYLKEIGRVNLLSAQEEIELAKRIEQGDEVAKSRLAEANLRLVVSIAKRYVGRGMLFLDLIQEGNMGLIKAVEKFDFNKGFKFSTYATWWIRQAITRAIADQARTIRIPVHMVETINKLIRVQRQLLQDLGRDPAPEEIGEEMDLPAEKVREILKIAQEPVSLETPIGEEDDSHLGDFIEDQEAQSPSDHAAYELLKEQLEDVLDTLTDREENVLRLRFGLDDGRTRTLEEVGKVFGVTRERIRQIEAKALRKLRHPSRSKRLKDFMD", "assay": "Electrophoretic mobility shift assay, STAAU_R12-dependent DNA binding", "type": "biochemical", "settings": "pre-incubation with STAAU_R12, FIG. 9"}, "STAAU_R12 [2]": {"target": "T1, STAAU_R12 (Staphylococcus aureus, UniProt P0A0J0)", "T1 sequence (P0A0J0 whole entry)": "as above", "assay": "TR-FRET assay of STAAU_R12 / G1ORF67 interaction", "type": "binding", "parameters": "made in house; host or cells: E. coli BL21", "settings": "GB-G1ORF67 and HK-STAAU_R12, FIG. 5A", "description": "TR-FRET technology was favorably used for monitoring the interaction of S. aureus phage G1ORF67 with its cognate target STAAU_R12 from S. aureus. This method is based on the energy transfer from a long-lived fluorophore (the energy donor) to anotherfluorophore (the energy acceptor) upon excitation of the donor (Mathis G., Clinical Chemistry (1995) 41:1391-1397). For this assay, Europium cryptate (Eu)-labeled anti-Histidine antibodies were used as energy donor and allophycocyanin (APC)-labeled anti-GST antibodies as energy acceptor. When the fluorescence donor and acceptor molecules are brought into close proximity as a result of a biomolecular interaction, flash excitation of Eu at 340 nm results in transfer of a portion of excitation energy non-radiatively to the APC acceptor which emits light at 665 nm. Under those conditions, the emission of light from APC adopts the time-resolved nature of the donor. Under conditions of no interaction and therefore of no proximity between the proteins under investigation, only background levels of emission from APC at 665 nm are detected.\nThus under the TR-FRET conditions, the interaction of HK-STAAU_R2 with GB-G1ORF67 induces a transfer of energy from Eu to APC, detected optimally at 665 nm. […]"}, "[3]": {"test_system": "RNA synthesis in S. aureus strain RN4220", "assay": "Macromolecular synthesis in S. aureus expressing the ORF (3H-uridine uptake)", "type": "cell-based, Staphylococcus aureus", "settings": "induced with 5 μM sodium arsenite, FIG. 11", "protocol": "To complement the inhibitory effect of G1ORF67 observed in vitro on the activity of STAAU_R12, we investigated the effect of G1ORF67 on the synthesis of macromolecules in S. aureus. To this end, the effect G1ORF67 on STMU_R12 was evaluated in the S. aureus strain RN4220 expressing G1ORF67 under the control of the arsenite promoter, by measuring the uridine uptake to monitor global transcription. As negative controls, 77ORF104 and other phage ORFs were used in parallel. Briefly, exponentially growing cells harboring G1ORF67 or the negative control ORFs were induced or not with 5 μM of sodium arsenite for different periods of time and then, 100 μl of the cells were withdrawn and subjected to a pulse labeling with 0.1 μCi/ml of ^3H-uridine (Amersham-Pharmacia) for 15 min at 37° C. Cells were then treated with 10% TCA for 30 min at 4° C. and unincorporated radioactivity was removed by filtration using Multiscreen™ 96-well plates (Millipore). The filters were washed with 10% TCA and 95% ethanol and then, liquid scintillation cocktail was added and the filters were counted using a Microbeta counter (Wallac)."}, "STAAU_R12 [4]": {"target": "T1, STAAU_R12", "assay": "Yeast two-hybrid analysis", "type": "cell-based", "parameters": "expressed in transfected cells; host or cells: yeast strain AH109 (Clontech)"}, "[5]": {"test_system": "DNA and protein synthesis in S. aureus", "assay": "Macromolecular synthesis in S. aureus expressing the ORF (DNA and protein)", "type": "cell-based, Staphylococcus aureus", "settings": "induced conditions"}}}
{"molecule": "B1", "values": [{"measurement": "effect on DNA-protein complex formation (STAAU_R12 DNA binding)", "setting": "[1]", "value": "interfere with the DNA protein complex formation"}, {"measurement": "TR-FRET interaction with STAAU_R12", "setting": "STAAU_R12 [2]", "value": "interact with each other"}, {"measurement": "RNA synthesis as monitored by uridine uptake", "setting": "[3]", "value": "marked reduction"}, {"measurement": "interaction with full length STAAU_R12 (growth on SD THAL minus medium)", "setting": "STAAU_R12 [4]; yeast AH109", "value": "interacts"}, {"measurement": "interaction with STAAU_R12 fragment amino acids 294 to 368 (SEQ ID NO: 4)", "setting": "STAAU_R12 [4]; yeast AH109, both directions", "value": "also interacted"}, {"measurement": "interaction with STAAU_R12 fragment amino acids 294 to 360 (SEQ ID NO: 5)", "setting": "STAAU_R12 [4]; yeast AH109, one direction", "value": "found to interact"}, {"measurement": "effect on DNA synthesis", "setting": "[5]", "value": "no inhibitory effect"}, {"measurement": "effect on protein synthesis", "setting": "[5]", "value": "no inhibitory effect"}]}
